Measurements published in PubChem BioAssay AID686978 (National Center for Advancing Translational Sciences (NCATS), 2013).
Values joined by “and” are separate entries in the source; they are usually repeats but may differ in a detail not shown here. Equal entries are not always repeated. Among all 420,000 compounds or so, about 64,000 (15%) were called active. The inconclusive results got no clear call from the source; some entries with a clear call stand among them for comparison. The call rests on the fitted dose curve; in most records, active means well fitted inhibition curve with a large enough effect; inconclusive means small, poorly fitted or top-dose-only effect; inactive means flat fitted curve, though single readings scatter. Potencies of inconclusive entries are doubtful fits and often do not repeat.

test: qHTS for Inhibitors of human tyrosyl-DNA phosphodiesterase 1 (TDP1): qHTS in cells in absence of CPT; details: DT40 Tdp1-/- hTDP1 cells, no CPT, ATP luminescence, 48 h; activity change, negative = growth inhibition: at 46.2 µM (top of the series) unless noted; further: nearly all actives have a fitted effect of over 55% in size
Summary of the method: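 Readout: luminescence from CellTiter-Glo after 30 min in the dark at RT. Cells: DT40 Tdp1-/- with stable hTDP1, 400/well. Exposure: compounds alone, ≥48 hr, 37 °C.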
On the % scale 0 is the no-effect control and ±100 the full control effect; potency means the concentration at half of the fitted maximal effect; tags describe the fitted curve by direction and shape.

Row | SMILES | activity change, negative = growth inhibition | Potency
1 | Cc1ccc(C(=O)N/C(=C\c2cccs2)C(=O)NCCc2ccccn2)cc1C | inactive: -26.9% | –
2 | CC(C)NC(=O)N1Cc2cc(C(=O)NCC(F)(F)F)nc(-c3cccc(-c4cc5ccccc5o4)c3)c2[C@@H]1CCO | – | inconclusive: 23.1 µM [inhibitor, single point]
3 | Cc1ccc(NC(=S)c2ccncc2)cc1 | – | inconclusive: 20.6 µM [inhibitor, single point]
4 | CN1CCN(C(=O)C2CC(=O)N(c3ccc(F)c(Cl)c3)C2)CC1 (stereo unspecified) | inactive: -4.87% | –
5 | CCc1cccc(NC(=O)Cn2c(=O)n(-c3ccccc3C)c(=O)c3c2c2cc(C)ccc2n3C)c1 | – | inconclusive: 11.6 µM [inhibitor, partial curve]
6 | CCCCN(CC)Cc1c(O)ccc2c(-c3ccccc3)cc(=O)oc12 | – | inconclusive: 29.1 µM [inhibitor, single point]
7 | COc1cc(OC)c(NC(=O)Cn2c(=O)c(C(F)(F)F)nc3ccccc32)cc1Cl | inactive: -2.39% | –
8 | N#CSCC(=O)c1cccc2ccccc12 | – | active: 4.61 µM
9 | Clc1ccccc1N1CCN(Cc2nnc(-c3ccccc3)o2)CC1 | – | inconclusive: 20.6 µM [inhibitor, single point]
10 | O=C(Cn1c(=O)n(-c2ccccc2)c(=O)c2ccc(C(=O)NCc3ccc4c(c3)OCO4)cc21)Nc1ccc(F)cc1 | inactive: -27.4% | –
11 | O=S(=O)(c1ccc(Cl)cc1)n1ccc(-c2cccc(OCc3c(F)cccc3Cl)c2)n1 | – | inconclusive: 29.1 µM [inhibitor, single point]
12 | CC(=O)OCC(=O)Nc1ccc(SC(F)F)cc1 | inactive: -9.49% | –
13 | O=C(c1cccs1)N1CCC2(O)CCCCC2C1c1ccc(F)cc1 (stereo unspecified) | inactive: -11.7% | –
14 | Cc1ccc(S(=O)(=O)NCc2ccccc2)cc1C(=O)N1CCCCCCC1 | – | inconclusive: 29.1 µM [inhibitor, single point]
15 | C=CCNC(=S)/N=c1/ccccn1CCC | – | active: 23.1 µM
16 | Cc1cccc(C(=O)O)c1NC(=O)Cc1cccc2ccccc12 | – | inconclusive: 9.2 µM [inhibitor, single point]
17 | CCOC(=O)C1=C(C)NC2=C(C(=O)CCC2)C1c1cccs1 (stereo unspecified) | inactive: -25.8% | –
18 | COc1ccc(CCCc2nnc(SCC(=O)Nc3cccc(C)c3)o2)cc1C | – | inconclusive: 0.206 µM [inhibitor, single point]
19 | Cc1ccccc1CN1CCc2nc(N3CCN(c4ncccn4)CC3)ncc2C1 | – | active: 20.6 µM
20 | Cc1ccc(CNC(=O)c2ccc(CS(=O)(=O)Cc3ccc(F)cc3)o2)cc1 | – | inconclusive: 11.6 µM [inhibitor, partial curve]
21 | COc1cc2c(c(OC)c1OC)-c1c(cc3c(c1O)OCO3)C[C@@H](C)[C@@H](C)C2 | – | inconclusive: 23.1 µM [inhibitor, single point]
22 | Cn1nnnc1SCC(=O)Nc1ccc(C(=O)N2CCN(Cc3ccccc3F)CC2)cc1 | inactive: 4.91% | –

Row | SMILES | activity change, negative = growth inhibition | Potency
23 | COc1cc(OC)cc(C(=O)NCC(=O)N2CC=C(c3ccccc3)CC2)c1 | – | active: 4.61 µM
24 | CCCCn1c(O)c(/C=C2\C=NN=C2c2ccccc2)sc1=S | – | inconclusive: 25.9 µM [inhibitor, single point]
25 | CCOc1ccc2nc(NC(=O)Cc3cccs3)sc2c1 | – | inconclusive: 29.1 µM [inhibitor, single point]
26 | O=C(NC1CCN(C(=S)NCCc2ccccc2)CC1)C1CC1 | inactive: -2.44% | –
27 | CCC(=O)Nc1ccc(C(=O)N/N=C/c2ccccc2[N+](=O)[O-])cc1 | – | inconclusive: 35.5 µM [inhibitor, single point]
28 | Cc1ncc([N+](=O)[O-])n1CC(=O)N/N=C/c1ccc(F)cc1 | inactive: 20.7% | –
29 | CCOC(=O)CC(NC(=O)c1ccccc1F)c1ccc(C)cc1 (stereo unspecified) | inconclusive: -31.4% [inhibitor] | –
30 | COc1ccc(Cl)cc1C(=O)Nc1ccc(N(C)C(C)=O)cc1 | – | inconclusive: 16.4 µM [inhibitor, single point]
31 | COC(=O)[C@@]1(Cc2ccc(OC)cc2)[C@H]2c3cc(C(=O)N4CCCC4)n(Cc4c(CO)[nH]cc(C)c4=O)c3C[C@H]2CN1C(=O)c1ccccc1 | – | inconclusive: 23.1 µM [inhibitor, single point]
32 | CCCN(CCC)C(=O)CSc1nc2c(sc(=S)n2-c2ccc(OCC)cc2)c(=O)[nH]1 | – | inconclusive: 23.1 µM [inhibitor, single point]
33 | O=C(/C=C/c1ccccc1)c1ccc(O[C@H]2OC(CO)C(O)C(O)C2O)cc1O (stereo partly specified) | – | inconclusive: 18.4 µM [inhibitor, single point]
34 | COc1ccc(S(=O)(=O)N(C)CC(=O)NCc2ccccn2)cc1 | inactive: -5.54% | –
35 | CNC(=S)N1N=C(c2ccc(OC)cc2)CC1c1ccccc1Cl (stereo unspecified) | – | inconclusive: 29.1 µM [inhibitor, single point]
36 | O=C(NC1CCCC1)C(c1cccnc1)N(C(=O)c1csnn1)C1CC1 (stereo unspecified) | inactive: -13% | –
37 | O=C(NCC1COc2ccccc2O1)c1ccc(Cl)c(S(=O)(=O)N2CCOCC2)c1 (stereo unspecified) | – | inconclusive: 11.6 µM [inhibitor, single point]
38 | CC(C)C[C@H](NC(=O)C1CC(=O)N(c2ccc(F)cc2)C1)C(=O)N1CCCCC1 (stereo partly specified) | inactive: -6.22% | –
39 | CCSc1nc2c(cnn2-c2ccc(C)cc2)c(=O)[nH]1 | inconclusive: -31.1% [inhibitor] | –
40 | CCCCN(C)CCCNC(=O)Cn1ncc2c3ccccc3n(Cc3cccc(Cl)c3)c2c1=O | – | inconclusive: 9.2 µM [inhibitor, partial curve]
41 | O=C(COC(=O)c1ccc(-c2ccc([N+](=O)[O-])cc2)o1)NC(=O)NC1CCCCC1 | – | inconclusive: 20.6 µM [inhibitor, partial curve, poor fit]
42 | O=C(NCc1ccco1)C(c1ccccc1)N(Cc1ccccc1)C(=O)Cn1nnc2ccccc21 (stereo unspecified) | – | inconclusive: 23.1 µM [inhibitor, single point]
43 | Cc1cc(OCc2cc(C(=O)N(C)CC3CCOCC3)no2)cc(C)c1Cl | – | inconclusive: 29.1 µM [inhibitor, single point]
44 | COc1cc(NC(=O)CSc2nc(-c3cccs3)cc(C(F)(F)F)n2)cc(OC)c1OC | – | inconclusive: 10.3 µM [inhibitor, partial curve]

Row | SMILES | activity change, negative = growth inhibition | Potency
45 | Cc1ccc(C(=O)N2CCN(CCNC(=O)C(=O)NCc3ccc(Cl)cc3)CC2)cc1 | – | inconclusive: 20.6 µM [inhibitor, single point]
46 | Cc1ccc(C)c2[nH]c(=O)c(CCNC(=O)c3ccc(Br)o3)cc12 | – | inconclusive: 25.9 µM [inhibitor, partial curve, poor fit]
47 | CC(C)c1nc2oc3c(NCC4CCCO4)ncnc3c2c2c1COC(C)(C)C2 (stereo unspecified) | – | active: 14.6 µM
48 | CCCNC(=O)C(Cc1ccc(C(F)(F)F)cc1)NC(=O)c1ccc2ccccc2n1 (stereo unspecified) | – | inconclusive: 29.1 µM [inhibitor, single point]
49 | CCOC(=O)N/N=C\c1ccccc1OC/C=C/c1ccccc1 | – | inconclusive: 29.1 µM [inhibitor, single point]
50 | COC(=O)Cc1ccc(NC(=S)NCc2ccc(Cl)cc2)cc1 | – | inconclusive: 18.4 µM [inhibitor, single point]
51 | COc1ccc(C2=C(c3ccccc3)OC(OC)c3cc(F)ccc32)cn1 (stereo unspecified) | – | inconclusive: 29.1 µM [inhibitor, single point]
52 | CCOc1ccc(N2CC(C(=O)NNC(=O)c3ccc(Br)cc3)CC2=O)cc1 (stereo unspecified) | – | inconclusive: 6.51 µM [inhibitor, partial curve]
53 | Cc1cc(C)c(O)c(-c2cc(C(=O)NCc3ccccc3)[nH]n2)c1 | – | inconclusive: 29.1 µM [inhibitor, single point]
54 | CCN1CCN(CCC(=O)Nc2cc(C)ccc2C)CC1 | inactive: 1.12% | –
55 | CCOc1ccc(N(CC(=O)Nc2ccc3c(c2)OCCO3)S(=O)(=O)c2c(C)noc2C)cc1 | – | inconclusive: 20.6 µM [inhibitor, single point]
56 | COc1ccccc1NC(=O)N(C)C[C@@H]1OCc2cn(nn2)CCCC(=O)N([C@H](C)CO)C[C@H]1C | inactive: 14.6% | –
57 | Cc1cccc(Nc2nc(NCC3CCCO3)nc(N)c2[N+](=O)[O-])c1 (stereo unspecified) | – | inconclusive: 29.1 µM [inhibitor, single point]
58 | Cc1cc(NC(=O)CSc2c3c(nc4ccccc24)CCC3)no1 | – | inconclusive: 20.6 µM [inhibitor, single point]
59 | CN(Cc1ccccc1N1CCCC1)C(=O)c1cc2cc(Cl)ccc2o1 | inactive: -15.1% | –
60 | CCOc1cccc(C2C=C(c3ccc4c(c3)OCO4)NC(c3ccccc3Cl)N2)c1O (stereo unspecified) | – | active: 11.2 µM
61 | Cc1cccc(CSc2nc3c(c(=O)[nH]2)CCC3)c1 | – | inactive and inconclusive: 14.6 µM [inhibitor, single point]
62 | O=C(Nc1ccc(S(=O)(=O)Nc2nccs2)cc1)c1ccc(N2C(=O)c3ccccc3C2=O)cc1 | inactive: -1.86% | –
63 | Cn1cnc2c(NCc3ccccc3)nc(NCCO)nc21 | – | inconclusive: 29.9 µM [inhibitor, partial curve, poor fit] and inconclusive: 18.4 µM [inhibitor, single point] and inconclusive: 50.1 µM [inhibitor, single point]
64 | CCN(CC)S(=O)(=O)c1ccc(NC(=O)c2cc(-c3ccccc3)nc3ccccc23)cc1 | – | inconclusive: 16.4 µM [inhibitor, partial curve]
65 | CN(C)c1ccc(NC(=O)Nc2cccc(Cl)c2)cc1 | – | inconclusive: 23.1 µM [inhibitor, partial curve, poor fit]
66 | O=C(Nc1ccc(F)cc1F)c1cccc2c1C(=O)N(C1CCCCC1)C2 | – | inconclusive: 20.6 µM [inhibitor, single point]
